# From PubChem BioAssay AID485281 (National Center for Advancing Translational Sciences (NCATS), 2010)
# Screen size: about 350,000 compounds; about 260 (0.074%) were called active. The shares of active, inactive and inconclusive entries below differ from those in the screen. The call rests on the fitted dose curve; in most records, active means well fitted inhibition curve with a large enough effect; inconclusive means small, poorly fitted or top-dose-only effect; inactive means no such curve, though single readings can be large or run the other way. Potencies beside an inconclusive call are fits to weak or partial responses and may not hold up.
# Target: Ferritin light chain (Equus caballus) (UniProt P02791)
# Assay: qHTS Assay for Identification of Novel General Anesthetics; further: nearly all actives have a fitted effect of over 20% in size
# Settings: apoferritin/1-aminoanthracene competitive binding, fluorescence; activity change, negative = displacement: at 77.5 µM (top of the series)
# How it was run: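 10 uM apoferritin + 50% sat. 1-AMA, PBS; cpd 10 min RT; Ex380/Em535 endpoint; normalized to free probe vs complex; 4-param Hill fit; propofol titration as pos. ctrl.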
# On the % scale 0 is the no-effect control and ±100 the full control effect; potency means the concentration at half of the fitted maximal effect; tags describe the fitted curve by direction and shape.
# Sequence of UniProt P02791 (P02791 whole entry, looked up): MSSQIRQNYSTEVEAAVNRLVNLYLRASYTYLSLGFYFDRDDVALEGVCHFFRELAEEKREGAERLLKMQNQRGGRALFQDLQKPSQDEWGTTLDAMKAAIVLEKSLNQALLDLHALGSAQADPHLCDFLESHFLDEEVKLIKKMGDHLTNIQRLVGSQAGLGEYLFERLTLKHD
Structure (SMILES),Potency,"activity change, negative = displacement"
O=C(Nc1ccc(Oc2cccc3ccccc23)cc1)c1ccco1,"inconclusive: 7.08 µM [inhibitor, full curve, poor fit]",
Cc1ccc(C2=NC(C)(C)N=C2SCC(=O)Nc2ccc(Cl)cc2)cc1,"inconclusive: 39.8 µM [inhibitor, partial curve]",
CC1(C)Cc2c(sc(NC(=O)c3ccco3)c2C#N)CO1,"inconclusive: 39.8 µM [inhibitor, partial curve]",
CC(=O)n1c2c(c3ccccc31)OC(N)=C(C#N)C2c1ccc(C(C)C)cc1 (stereo not given),"inconclusive: 15.8 µM [inhibitor, partial curve]",
COc1cc([N+](=O)[O-])ccc1NC(=O)NNC(=O)c1sccc1C,"inconclusive: 35.5 µM [inhibitor, single point]",
Cc1ccc(OCC(=O)N/N=C/c2cccn2C)cc1C,"inconclusive: 39.8 µM [inhibitor, partial curve]",
CCOc1ccc(C(=O)N2CCc3cc(OC)c(OC)cc3C2COc2ccc3c(C)cc(=O)oc3c2)cc1OCC (stereo not given),"inconclusive: 44.7 µM [inhibitor, partial curve]",
Cn1nnnc1SC1CC(=O)N(c2ccccc2)C1=O (stereo not given),,inactive: -15.1%
Cc1ccc(-c2cc(-c3ccccc3)c3c(N)c(S(C)(=O)=O)sc3n2)cc1,"inconclusive: 50.1 µM [inhibitor, single point]",
Cc1ccc(NC(=O)C(OC(=O)c2ccc(C=O)cc2)c2ccccc2)cc1Cl (stereo not given),"inconclusive: 15.8 µM [inhibitor, partial curve]",
CCOC(=O)/C(C#N)=N\Nc1cc(Cl)ccc1OC,,inactive: -13.3%
Cc1ccccc1Oc1nc2c(C)cccn2c(=O)c1/C=C(\C#N)C(=O)Nc1c(C)n(C)n(-c2ccccc2)c1=O,"inconclusive: 28.2 µM [inhibitor, single point]",
CC(=O)c1c(C)[nH]c(C(=O)CN2C(=O)NC(C)(c3ccc(C)cc3)C2=O)c1C (stereo not given),"inconclusive: 28.2 µM [inhibitor, partial curve]",
Cc1c(CN(C)C)c2c(n1C)C(=O)c1ccc(Br)cc1-2,"inconclusive: 39.8 µM [inhibitor, partial curve]",
CCc1ccc(/C=N/NC(=O)c2cc(C)on2)s1,,inactive: 1.06%
O=C(c1ccc(Sc2cccc(Cl)c2)c([N+](=O)[O-])c1)N1CCN(c2ccccn2)CC1,,inactive: -12.1%
Cc1ccc(C(=O)OCC(=O)Nc2ncc(C(F)(F)F)cc2Cl)cc1NC(=O)c1ccco1,"inconclusive: 20 µM [inhibitor, partial curve]",
O=C(CC1C(=O)NCCN1Cc1ccc(F)cc1Cl)NC1CCCCCCC1 (stereo not given),"inconclusive: 35.5 µM [inhibitor, partial curve, poor fit]",
O=C(CSc1nc2ccc([N+](=O)[O-])cc2[nH]1)NCCc1ccccc1,"inconclusive: 31.6 µM [inhibitor, single point]",
Cc1ccc(C(=O)C(C)OC(=O)Cn2[nH]c(=O)c3ccccc3c2=O)cc1C (stereo not given),"inconclusive: 28.2 µM [inhibitor, partial curve]",

Structure (SMILES),Potency,"activity change, negative = displacement"
O=C(O)c1sccc1SCc1ccc(Cl)cc1Cl,"inconclusive: 14.1 µM [inhibitor, partial curve]",
CC(C)Oc1ccc(CNC(=O)c2sc3ncccc3c2-n2cccc2)cc1,"inconclusive: 22.4 µM [inhibitor, single point]",
Cc1[nH]c2ccc(-c3nnc(SCC(=O)c4ccccc4F)o3)cc2c1C,"inconclusive: 17.8 µM [inhibitor, partial curve]",
O=C(O)C(Cc1ccc2c(c1)oc1ccccc12)NCP(=O)(O)O (stereo not given),,inactive: 84.5%
Cc1nc(SCC(=O)Nc2ccc(C)c(Cl)c2)cc(-c2ccccc2)n1,"inconclusive: 6.31 µM [inhibitor, full curve]",
O=C1CSCN1c1cc(Cl)ccc1Cl,"inconclusive: 25.1 µM [inhibitor, partial curve]",
O=C(CSc1cccc(C(F)(F)F)c1)NC(=O)NCc1ccco1,"inconclusive: 31.6 µM [inhibitor, single point]",
Cc1ccc(O)c(-c2cc3ccccc3[nH]2)c1,"inconclusive: 50.1 µM [inhibitor, single point]",
COc1ccc(C[C@H]2CN3C(=NC[C@@H]3Cc3ccccc3)N2CCNC(=O)c2ccc(C)c(Br)c2)cc1,"inconclusive: 10 µM [inhibitor, partial curve]",
O=C(COC(=O)c1cccc(O)c1)NC(=O)Cc1ccccc1,"inconclusive: 35.5 µM [inhibitor, partial curve]",
C[C@H](C(=O)O)c1cccc(C(=O)c2ccccc2)c1,,inactive: -19.4%
NC(=O)[C@@H]1CCNc2c(I)cc([N+](=O)[O-])cc2C(=O)N[C@@H](CO)C(=O)N[C@@H](Cc2ccc(O)cc2)C(=O)N1,"inconclusive: 35.5 µM [inhibitor, single point]",
O=C(NCCc1ccc(Cl)cc1)C1CCN(S(=O)(=O)c2ccc(-n3cnnn3)cc2)CC1,"inconclusive: 28.2 µM [inhibitor, partial curve]",
CCCCOc1ccc(C(=O)Nc2cccc(C)n2)cc1,"inconclusive: 31.6 µM [inhibitor, partial curve]",
CCc1ccc(NC(=O)Cn2nc(SC)c(S(=O)(=O)c3ccc(OC)cc3)c2N)cc1,"inconclusive: 0.891 µM [inhibitor, full curve, poor fit]",
COc1ccc(N2CCN(C(=O)C(C)n3nc(C)c4sc5ccccc5c4c3=O)CC2)cc1 (stereo not given),"inconclusive: 10 µM [inhibitor, partial curve]",
COc1ccc(CSCC(=O)N/N=C/c2ccc(OCC(=O)N3CCCCC3)cc2)cc1,"inconclusive: 22.4 µM [inhibitor, single point]",
O=C(NC(=S)Nc1cccc(NC(=O)c2ccccc2)c1)c1cccc([N+](=O)[O-])c1,,inactive: -17.9%
Cc1occc1C(=O)N/N=C/C=C/c1ccccc1[N+](=O)[O-],"inconclusive: 28.2 µM [inhibitor, single point]",
Cc1ccc(C(=O)COC(=O)c2n[nH]c(=O)c3ccccc23)cc1,"inconclusive: 39.8 µM [inhibitor, single point]",
